Among the data in article PMC12136788 are binding signal values, retold here.

The chains are these.
T1: UNK ZnF1-6 (called full-length) (human, UniProt Q9C0B0 30-357)
T1 sequence: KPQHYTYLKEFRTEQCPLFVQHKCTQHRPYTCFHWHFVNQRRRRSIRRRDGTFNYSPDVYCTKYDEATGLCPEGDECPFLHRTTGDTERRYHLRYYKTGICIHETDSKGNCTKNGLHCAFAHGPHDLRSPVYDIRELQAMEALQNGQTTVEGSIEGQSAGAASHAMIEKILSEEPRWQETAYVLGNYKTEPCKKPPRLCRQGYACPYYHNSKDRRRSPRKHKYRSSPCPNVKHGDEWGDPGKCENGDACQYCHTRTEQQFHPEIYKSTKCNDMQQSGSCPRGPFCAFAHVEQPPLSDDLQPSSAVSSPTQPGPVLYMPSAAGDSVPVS

B1: chr16:58599380:58599482:-|5pUTR|ENSG00000125107|unk|total|mutant (ssRNA)
RNA: GGGAGUUCUACAGUCCGACGAUCCAGAACAGAGUAAGACCCCUGGUAAAGAAGAACUGAAGAUAUUAUACAGAUACCAGAUACCGCCUAAUUACAAAGAAAGCAUUAACCUGCCUCUGAGGUGACUAAAGGGGAAUAAUGGUGCAACAGAGGAUUGAGCAUCA
B2: chr10:7163078:7163179:-|3pUTR|ENSG00000198879|unk|FALSE|unique (ssRNA)
RNA: GGGAGUUCUACAGUCCGACGAUCAGAGGUGCCUUUUAGGAAUACGGGGAGUGAAGGAAGGCCGGCAGGCAUCUCCAUGCAACUAGAUGGUUUGUUUGUUUGUUUGUUUGUUUGUUGUUCAUUUUGUUGUGUUUUUUGAGACAGCAACAGAGGAUUGAGCAUCA
B3: chr13:45969211:45969312:-|CDS|ENSG00000123200|unk|total|mutant (ssRNA)
RNA: GGGAGUUCUACAGUCCGACGAUCGUCCCUGACCGUACAGAGGUGACAGAAGCAGAGCAUACUGCCACCGCCACGACUCCUGGCCGUACCCCUUCUCCUCUAUCUUCUCUUCUUCCUCCUCCACCGCCUGUGGCUACUGCCACUCAACAGAGGAUUGAGCAUCA
B4: ENSG00000248905:stop:overlap|stop_codon|ENSG00000248905|stop_codon|NA|stop_codon (ssRNA)
RNA: GGGAGUUCUACAGUCCGACGAUCAAGACACAGAAGAAAAAGUGGGACUGAAGUACACUGAAGCAGGUAAUGUGAAAGGAAGCUAGGGACCCGGGAAUGAAUCUCUUCCUGCAAUGGCUUUUAGUUCUAGCUUAGUUGACUCUCCAACAGAGGAUUGAGCAUCA
B5: chr10:49131153:49131612:-|three_prime_utr|ENSG00000172538|control|control|control (ssRNA)
RNA: GGGAGUUCUACAGUCCGACGAUCCUGCCCUCACCUCCAGGGCCUGGGACUGCUCCUUCCCCAGCCAGCAGUAUCAGAGCCACUAGGGCAGGGAGAGAGGACCAGGGUCAGGGGGAAGGAAAGGCAUGGAGUGUAGAGCAAGGACAACAGAGGAUUGAGCAUCA
B6: chr8:76983344:76983445:-|CDS|ENSG00000164751|msi1|FALSE|unique (ssRNA)
RNA: GGGAGUUCUACAGUCCGACGAUCAGCCACCAGUGGCAAAGAAUGCGCUCUAUGUGGAGAGUGGCCCACCAUGCCUCACACCAUAGGAUGUGAGCAUAUUUUCUGUUAUUUCUGUGCUAAGAGUAGUUUCUUAUUUGACGUGUACAACAGAGGAUUGAGCAUCA
B7: chr2:27376893:27376994:+|3pUTR|ENSG00000115234|msi1|total|mutant (ssRNA)
RNA: GGGAGUUCUACAGUCCGACGAUCGGGCUGGCUGCACAGAGGAUUGCCCCUUCUCUUUUCAGAGCUGGCCCUCGAUGCCAAAUCCGCAUUCCGUAUUUUGCACAAAGUCUAAGGGACCAUGGCUGCCUGCCUUGGGGAGGAACCCAACAGAGGAUUGAGCAUCA
B8: chr4:87458373:87458474:+|3pUTR|ENSG00000170502|unk|FALSE|unique (ssRNA)
RNA: GGGAGUUCUACAGUCCGACGAUCUCCCUCCCGCUCCCCAUCUUCUGAGGCCUGAAGGAUGUUCCUGCCACAUCAAACUCCUUUAGGCAGAGUACCGCCACUGGAUGUAUAGUUUAAUGUUUCAUCUGAUUUUUCUUUAAAUUACAACAGAGGAUUGAGCAUCA
B9: chr10:91841327:91841437:+|CDS|ENSG00000107854|unk|FALSE|unique (ssRNA)
RNA: GGGAGUUCUACAGUCCGACGAUCUUCUUAUGGACAUUAUGAAGUUGCAGAACUUCUUGUUAAACAUGGAGCAGUAGUUAAUGUAGCUGAUUUAUGGAAAUUUACACCUUUACAUGAAGCAGCAGCAAAAGGAAAAUAUGAAAUCAACAGAGGAUUGAGCAUCA
B10: chr11:48137134:48137235:+|CDS|ENSG00000149177|msi1|total|mutant (ssRNA)
RNA: GGGAGUUCUACAGUCCGACGAUCCACGUACUCCUACUGCCUUCUUAUUGAGAAGGCUGGAAAUUCCAGCAACGCAACACAAGCCGUCACGGACAUUGGAAUUACUGACGCUACAGUCACUGAAUUAAUACCUGGCUCAUCAUACAACAGAGGAUUGAGCAUCA
B11: chr18:49591392:49591493:+|3pUTR|ENSG00000101670|msi1|total|mutant (ssRNA)
RNA: GGGAGUUCUACAGUCCGACGAUCCCUUCUCCGUUAUUAUGUGCCACCUCCCCUAUGAGUGACGUGUUUGAUCACCCGCAGAACCGCAAGCAGAGUAUCAUUCAUGCUGGGGCCAGAAUGAUGGCCGGUUGCCAGAUAUAACUGCAACAGAGGAUUGAGCAUCA
B12: chr7:6162096:6162197:-|3pUTR|ENSG00000008256|msi1|total|mutant (ssRNA)
RNA: GGGAGUUCUACAGUCCGACGAUCGUCACAGAACAUUUUGGGGCAGUUUAAUGUGGUACCAAACUGAAAACCGGAGCUAUUUACCGAUGGAGCAGCACUCCGUGCUUCACCGAAAGCAAUGCCUAUUUUUAAAGUUACAAACGCCAACAGAGGAUUGAGCAUCA
B13: chr17:37686430:37687371:-|three_prime_utr|ENSG00000275410|control|control|control (ssRNA)
RNA: GGGAGUUCUACAGUCCGACGAUCUGCAAUUUCCCCUCUGUGUCCUCUCCCCUCUGCCCUGUAUAUAAUACUAAAGUGUCUAUUAGUUUUCUUUGUAAAGGUCAGAGUCAAAAUUUCAAAAGUGAUCUGUCCCCUCUCCCCUCACAACAGAGGAUUGAGCAUCA
B14: ENSG00000119777:stop:overlap|stop_codon|ENSG00000119777|stop_codon|NA|stop_codon (ssRNA)
RNA: GGGAGUUCUACAGUCCGACGAUCGCCUACAGGACAUUACAGUGGCUUUCUUGGACUGGGCACUUGCCCUGAUAUCCCAGCAGUAGGCCCUGCCUUCCUGGCCACUGAUUUCUGCAUGGGUAGACCAUCCAAGACUGCAGCGGGCAACAGAGGAUUGAGCAUCA
B15: chr8:19954154:19954263:+|CDS|ENSG00000175445|unk|FALSE|unique (ssRNA)
RNA: GGGAGUUCUACAGUCCGACGAUCACCUAACUUUGAGUAUGCAGAAGCCCCGAGUCGUCUUUCUCCUGAUGAUGCAGAUUUUGUAGACGUCUUACACACAUUCACCAGAGGGUCCCCUGGUCGAAGCAUUGGAAUCCAGAAACCCAACAGAGGAUUGAGCAUCA
B16: chr2:111862450:111862553:-|CDS|ENSG00000153107|unk|FALSE|unique (ssRNA)
RNA: GGGAGUUCUACAGUCCGACGAUCUCUUUUUCAGGGGUGCAAAGGUUCAACAUUUCAAGCCAUAAUCAGUCUCCAAAGAGACAUAGUAUUUCUCAUUCUCCAAAUAGUAAUUCUAAUGGCUCCUUUCUUGCACCAGAAACGGAGCAACAGAGGAUUGAGCAUCA
B17: chr9:114377124:114377225:-|CDS|ENSG00000106948|msi1|total|mutant (ssRNA)
RNA: GGGAGUUCUACAGUCCGACGAUCUCCGUUGAACUCAGCCCGGCAAGGUCCUGGAGCAGUGGGACAGUGAGCCUCGACCACCCCCGUGACAGCCUUGAUUCUACCUGGGAAGGAGAGACCGAUGGCCCCCAGCCCACUGCCCUGCAACAGAGGAUUGAGCAUCA
B18: chr9:115020670:115020933:-|3pUTR|ENSG00000041982|msi1|total|mutant (ssRNA)
RNA: GGGAGUUCUACAGUCCGACGAUCCUUCUCUCCGGUGGCUCUGGGAAUGGGAGAGGGGCCGGAUGUACAGGGGCCGUUUGUUUCCGAACCAGCCGUAUUUUACAUGAAGCUGUAUAAUUAAUUGUCAUUAUUUUUGUCCGCAAACAACAGAGGAUUGAGCAUCA
B19: chr14:100278170:100278208:+|3pUTR|ENSG00000100811|msi1_unk|total|mutant (ssRNA)
RNA: GGGAGUUCUACAGUCCGACGAUCGCUAUCUUAAUUUUGGUUGUAUUCUUUGAUGUUAACACAUUUUGUAUAAUUGUAUCGUACCGCUGUAUUGAAUCAUGCCGUAUCAAAUAUCCGAUGUGAUUUAACCGUGUUAAUCAAUUUCAACAGAGGAUUGAGCAUCA
B20: chr14:60975662:60975785:-|CDS|ENSG00000126814|unk|total|mutant (ssRNA)
RNA: GGGAGUUCUACAGUCCGACGAUCGAAAGAAAACCCUCUGUGCACGUUGUCAUGAACUUGCCAGCAAAAGCUACCGAGUUUCUCCGUGCUUUCAAGUGGCUUUCCGAUGGGCAGCCAUGCAGCAGUGAGUUCCUUCCCACCGUGCAACAGAGGAUUGAGCAUCA
B21: chr12:71585298:71585408:+|3pUTR|ENSG00000139292|unk|total|mutant (ssRNA)
RNA: GGGAGUUCUACAGUCCGACGAUCUUGUUAACUCACUCAUAUUGAGAUCAUUUUCCGAGAUACCAGGUUUUAUGUAUCAGCACCCGAUGGUUCCACCCUCAUGGGAUAAAACUGCUUACAAGUAUUUUGAAAGAAAAACUGACCCAACAGAGGAUUGAGCAUCA
B22: chr19:811491:811550:+|3pUTR|ENSG00000011304|msi1_unk|total|mutant (ssRNA)
RNA: GGGAGUUCUACAGUCCGACGAUCCCGCAAUAUUUCCAGUUGACCAAAUAUUCUAAUCUUUUUUCAUUUAUAUGCAAAAGAAACCGUUUUAAGUAACUUUUUACCGCAAGAUGAUACAAUGGUAUGAGUGUAAUCUAAACUUCCCAACAGAGGAUUGAGCAUCA

This is one part of the list.

The experiment concerns the target T1, UNK ZnF1-6 (called full-length). The experiment can be described thus: nsRBNS (natural sequence RNA bind-n-seq); RBNS binding buffer (assumed for nsRBNS): 25 mM Tris pH 7.5, 150 mM KCl, 3 mM MgCl2, 0.01% Triton X-100, 500 ug/ml BSA, 20 U/ml SUPERase-In, 4 C; UNK is unkempt and MSI1 is Musashi-1; names of the RNAs are library labels; protein concentration not given here; high values mean tight binding.
The molecule B1 came in with a binding signal of 0.642 enrichment R.

As to B2, the binding signal came to 1.27 enrichment R. For B3 the value was 1.3 enrichment R.

For B4, the binding signal is 0.324 enrichment R. For B5 the value was 0.997 enrichment R; for B6, 0.515 enrichment R. In the case of B7 it was 0.643 enrichment R; in that of B8, 1.65 enrichment R; in that of B9, 0.989 enrichment R. As to B10, the binding signal turned out to be 0.54 enrichment R.

B11 registered a binding signal of 0.75 enrichment R. Turning to B12, the binding signal was 0.676 enrichment R.

With B13, the binding signal worked out at 0.786 enrichment R. Turning to B14, the binding signal is 0.579 enrichment R. In the case of B15 it was 0.828 enrichment R; in that of B16, 1.49 enrichment R; in that of B17, 0.905 enrichment R. Consider B18, for which the binding signal worked out at 0.99 enrichment R. The molecule B19 registered a binding signal of 0.368 enrichment R. For B20 the value was 0.51 enrichment R; for B21, 0.556 enrichment R. B22 yielded a binding signal of 0.512 enrichment R.
